Measurements: PubChem BioAssay AID686979 (National Center for Advancing Translational Sciences (NCATS), 2013)
Where “and” joins values, the source holds several entries; their conditions need not be identical. Equal values may be shown once. About 50,000 (12%) of roughly 420,000 compounds were called active. The inconclusive results got no clear call from the source; some entries with a clear call stand among them for comparison. The call rests on the fitted dose curve; in most records, active means well fitted inhibition curve with a large enough effect; inconclusive means small, poorly fitted or top-dose-only effect; inactive means flat fitted curve, though single readings scatter. Potencies beside an inconclusive call are fits to weak or partial responses and may not hold up.

Assay: qHTS for Inhibitors of human tyrosyl-DNA phosphodiesterase 1 (TDP1): qHTS in cells in presence of CPT; further: nearly all actives have a fitted effect of over 55% in size
Conditions: chicken DT40 Tdp1-/-;hTDP1 cells + 20 nM CPT, ATP luminescence, 48 h; activity change, negative = growth inhibition: at 46.2 µM (top of the series) unless noted
Procedure, shortened: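 Cell growth measured by CellTiter-Glo luminescence after a minimum 48 h, 37 C compound exposure with 20 nM CPT in Tdp1-knockout DT40 cells stably expressing hTDP1, seeded 400/well; qHTS titration format.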
On the % scale 0 is the no-effect control and ±100 the full control effect; potency means the concentration at half of the fitted maximal effect; tags describe the fitted curve by direction and shape.

| SMILES | Potency | activity change, negative = growth inhibition |
| --- | --- | --- |
| Cc1c(C(c2ccc(Cl)cc2Cl)c2c(O)c3ccccc3oc2=O)c(=O)n(-c2ccccc2)n1C (centres undefined) | inactive and inconclusive: 20.6 µM [inhibitor, single point] | – |
| COc1ccc(Cn2c(O)c(C=Nc3c(C)n(C)n(-c4ccccc4)c3=O)c(=O)[nH]c2=O)cc1 | inconclusive: 13 µM [inhibitor, partial curve] | – |
| C[C@@]12C(=O)N(Cc3ccco3)CC(=O)N1[C@H]1c3ccccc3OC[C@@H]1[C@@H]2c1ccccc1 | inconclusive: 29.1 µM [inhibitor, single point] | – |
| COc1ccc(NC(=O)CCOc2cc(C)ccc2C)cc1S(=O)(=O)N1CCCCC1 | inconclusive: 29.1 µM [inhibitor, single point] | – |
| O=c1c2ccccc2nc(/C=C\c2ccccc2F)n1-c1ccc(O)cc1 | inconclusive: 25.9 µM [inhibitor, single point] | – |
| CC1C(=O)OC2CCN3CC=C(COC(=O)C(C)(O)C1(C)O)C23 (centres undefined) | active: 5.8 µM | – |
| CN(C)c1ccccc1 | inactive | – |
| CCN(CC)c1ccc(N=Cc2c(O)n(Cc3ccco3)c(=O)[nH]c2=O)cc1 | inactive | – |
| CCc1ccc2nc(N3CCC(C(=O)N4CCC5(CC4)OCCO5)CC3)sc2c1 | active: 11.6 µM | – |
| CC(C)NC1C2CCC(CC2)C1(O)c1ccc(Cl)c(Cl)c1 (centres undefined) | inconclusive: 29.1 µM [inhibitor, single point] | – |
| CCN(CCCl)Cc1ccccc1Br | active: 16.4 µM | – |
| CN(C[C@H](Cc1ccccc1)N(C[C@H](Cc1ccccc1)N(CC1(c2ccccc2)CC1)N=O)N=O)N=O | inconclusive: 29.1 µM [inhibitor, single point] | – |
| CCCCn1c(=O)c(C(=O)Nc2cnccn2)c(O)c2ccccc21 | active: 2.91 µM | – |
| CCOC(=O)c1cnc(SCc2ccc(Cl)c(Cl)c2)nc1N1CC1 | active: 0.58 µM | – |
| CC(C)(C)C(=O)Cn1c(NCCCl)nc2ccccc21 | inactive | – |
| CCC(C)N1C(=O)/C(=C\c2cnc(N(C)C)nc2)C(=O)NC1=S (centres undefined) | inconclusive: 29.1 µM [inhibitor, single point] | – |
| CCN(CC)c1nc2ccccc2nc1C(=O)Nc1cccc(C(C)=O)c1 | inconclusive: 20.6 µM [inhibitor, partial curve] | – |
| CNC(=O)Oc1cccc(-c2cn3cc(OC(=O)NC)ccc3n2)c1 | inconclusive: 23.1 µM [inhibitor, single point] | – |
| COc1ccc(CCn2c(O)c(C=NCc3cccnc3)c(=O)[nH]c2=O)cc1OC | inconclusive: 23.1 µM [inhibitor, single point] | – |
| Nc1c(C(=O)OCC2CCCO2)c2nc3ccccc3nc2n1Cc1cccs1 (centres undefined) | – | inconclusive: -33.3% [inhibitor] |
| Cc1cc(-n2c(/C=C/c3cccs3)nc3ccccc3c2=O)ccc1Br | active: 14.6 µM | – |
| CCOc1cc2c(cc1OCC)-n1cccc1C(c1ccccc1OC)NC2 (centres undefined) | inconclusive: 16.4 µM [inhibitor, single point] | – |
| CCN(CC)CCOC(=O)C(O)(c1ccccc1)c1ccccc1 | inconclusive: 4.73 µM [inhibitor, partial curve, poor fit] | – |

| SMILES | Potency | activity change, negative = growth inhibition |
| --- | --- | --- |
| COc1ccc(CC2C(=O)N(c3ccccc3)C(=O)N(c3ccccc3)C2=O)c(OC)c1 | inconclusive: 0.291 µM [inhibitor, full curve, poor fit] | – |
| C=C(CO)CC1CC(O)[C@]2(C)OC3CC4OC5C[C@]6(C)O[C@]7(C)CCC8OC9C[C@]%10(C)OC%11C(C)=CC(=O)OC%11CC%10OC9C[C@@H](C)C8OC7CC6O[C@]5(C)C/C=C\C4OC3CC2O1 (some centres undefined) | active: 23.1 µM | – |
| CCN1C(=O)c2ccccc2Sc2ccc(C(=O)N3CCC4(CC3)OCCO4)cc21 | inconclusive: 18.4 µM [inhibitor, single point] | – |
| COC12C(COC(N)=O)C3=C(C(=O)C(C)=C(N)C3=O)N1CC1C2N1C (centres undefined) | active: 0.0517 µM | – |
| CCOc1ccc(-n2c(-c3cccs3)nc3ccccc3c2=O)cc1 | inconclusive: 5.8 µM [inhibitor, single point] | – |
| CSc1cccc(NP2(=O)OCC(C)([N+](=O)[O-])CO2)c1 (centres undefined) | inconclusive: 29.1 µM [inhibitor, single point] | – |
| CCOC(=O)c1c(C)n(CCOC)c2ccc(O)cc12 | inconclusive: 17.8 µM [inhibitor, partial curve] | – |
| COc1ccccc1-c1nn2c(=O)cc(CN3CCN(C(=O)Nc4ccc(C)cc4Cl)CC3)nc2s1 | active: 14.6 µM | – |
| COc1ccc(Cn2c(O)c(/C=C3/C=CC=N3)c(=O)[nH]c2=O)cc1 | active: 20.6 µM | – |
| Cn1c(=O)n(C)c2cc([N+](=O)[O-])c(N3CCNCC3)cc21 | inactive | – |
| N[C@H](CCP(=O)(O)O)C(=O)O | inactive | – |
| Cc1cc(-n2c(/C=C/c3ccc(Br)s3)nc3ccccc3c2=O)ccc1Br | active: 14.6 µM | – |
| CC(=O)c1cn(Cc2ccc(C#N)cc2)c2ccccc12 | inactive | – |
| CCOc1ccc(S(=O)(=O)N(C)c2ccc(OCC(=O)N3c4ccc(C)cc4C4CN(C)CCC43)cc2)cc1 (centres undefined) | inconclusive: 18.4 µM [inhibitor, single point] | – |
| Cc1ccc2c(c1)C1CN(C)CCC1N2C(=O)Nc1cccc(Cl)c1 (centres undefined) | inconclusive: 29.1 µM [inhibitor, single point] | – |
| COC(=O)C1=C(c2cccc(OCc3ccccc3)c2)C[C@@H]2CC[C@H]1N2C(=O)NCc1ccc(Cl)cc1 | inconclusive: 25.9 µM [inhibitor, single point] | – |
| Nc1ncnc2c1ccn2[C@@H]1O[C@H](CO)[C@@H](O)[C@H]1O | active: 0.0206 µM | – |
| O=c1c2ccccc2[nH]c(=S)n1-c1ccc2c(c1)OCCO2 | inactive | – |
| CC1(C)C(C(Cl)Cl)C2(Cl)C(Cl)C(Cl)C1(Cl)C2(Cl)Cl (centres undefined) | inconclusive: 29.1 µM [inhibitor, single point] | – |
| CC(=O)N1CCN(c2ccc(OC[C@@H]3CO[C@@](Cn4ccnc4)(c4ccc(Cl)cc4Cl)O3)cc2)CC1 | active: 7.08 µM and active: 15.8 µM | – |
| C=CCn1c(O)c(/C(CC)=N/NC(=S)Nc2ccccc2)c(=O)[nH]c1=O | inactive | – |
| COc1ccc(OC)c(C(O)C2CCCCN2)c1 (centres undefined) | inactive | – |
| Cc1oc(-c2ccc(Cl)cc2)nc1CN1CCC(C(=O)NCCCN2CCN(c3cccc(Cl)c3)CC2)CC1 | active: 5.17 µM | – |

| SMILES | Potency | activity change, negative = growth inhibition |
| --- | --- | --- |
| CC(=O)c1cc(C(C)=O)c(C)[n+](C)c1C | inactive | – |
| CC1CCC(NCCc2ccc3c(c2)OCO3)CC1 (centres undefined) | inconclusive: 29.1 µM [inhibitor, single point] | – |
| O=C1NC(=O)C(=Cc2ccc(-c3ccc(F)cc3O)o2)C(=O)N1 | inconclusive: 18.4 µM [inhibitor, single point] | – |
| CSc1ccc(CN2CCN(Cc3ccccc3Cl)CC2)cc1 | inconclusive: 29.1 µM [inhibitor, single point] | – |
| OC(c1ccccc1)(c1ccccc1)C1CN2CCC1CC2 (centres undefined) | inconclusive: 29.9 µM [inhibitor, single point] and inconclusive: 16.4 µM [inhibitor, single point] | – |
| COc1cc(CNCCc2c[nH]c3ccccc23)cc(OC)c1 | inconclusive: 14.6 µM [inhibitor, partial curve] | – |
| CC12CCC3C(=CCc4cc(O)ccc43)C1CCC2=O (centres undefined) | inconclusive: 25.9 µM [inhibitor, single point] | – |
| CC1(CCCc2ccc(N(CCCl)CCCl)cc2)NC(=O)NC1=O (centres undefined) | active: 0.411 µM | – |
| Cc1ccc(Cn2cc(C=O)c(-c3ccc(C)cc3)n2)cc1 | inconclusive: 29.1 µM [inhibitor, single point] | – |
| CC(C(=O)Nc1ccc(Cl)cc1Cl)N1CC=C(c2ccccc2)CC1 (centres undefined) | inactive | – |
| COC(=O)C1=C(c2cccc(OCc3ccccc3)c2)C[C@@H]2CC[C@H]1N2C(=O)NC1CCN(Cc2ccccc2)CC1 | active: 6.51 µM | – |
| CCN(CC)C1=NC(=[N+](CC)CC)c2ccccc21 | active: 0.651 µM | – |
| CC12CN3C(O)C(C)(C1)CC(C)(C2)C3O (centres undefined) | inactive | – |
| O=c1[nH]cnc2[nH]ncc12 | inactive and inconclusive: 5.8 µM [inhibitor, single point] | – |
| CCC(=NCCCn1ccnc1)c1c(O)n(-c2ccccc2)c(=O)[nH]c1=O | inactive | – |
| COCc1cc(OC(=O)N(C)C)nc(-c2ccc(C)c(Cl)c2)n1 | inconclusive: 29.1 µM [inhibitor, single point] | – |
| CC(C)(C)OC(=O)c1ncn2c1[C@@H]1CCCN1C(=O)c1c(Br)cccc1-2 | inactive | – |
| C[C@H]1O[C@@H](OC2CC[C@]3(C=O)[C@H]4CC[C@]5(C)[C@@H](C6=CC(=O)OC6)CC[C@]5(O)[C@@H]4CC[C@]3(O)C2)CC2OC(C)(C)OC21 (some centres undefined) | active: 1.84 µM | – |
| CCOC(=O)[C@H](CCc1ccccc1)N[C@@H](C)C(=O)N1Cc2cc(OC)c(OC)cc2C[C@H]1C(=O)O | inconclusive: 29.9 µM [inhibitor, single point] | – |
| COC(=O)C1=C(c2cc3ccccc3s2)C[C@@H]2CC[C@H]1N2C(=O)NCC1CC1 | inconclusive: 18.4 µM [inhibitor, single point] | – |
| O=C1C2CCCC1C(N1CCCCC1)CC2 (centres undefined) | inactive | – |
| C=CCn1c(O)c(C(C)=NCc2cc(OC)cc(OC)c2)c(=O)[nH]c1=O | active: 4.11 µM | – |
| COC(=O)C1=C(c2ccc(OC)c(OC)c2)C[C@@H]2CC[C@H]1N2C(=O)N1CCc2cc(OC)c(OC)cc2C1 | inconclusive: 29.1 µM [inhibitor, single point] | – |
